Reference: patent publication KR20140148294A (dated 2014)

Columns and labels:
[1] = molecular target: IGF-1R 단백질 (Sino biological Inc. 10164H08H) (UniProt P08069 31-932); test: ELISA, coated IGF-1R (50 ng/well), anti-human Fc-HRP
[2] = molecular target: T1, 재조합 IGF-1R (R&D systems, 391-GR) (human, UniProt P08069 31-932); test: SPR (BiaCore T200), antibody captured by anti-human IgG Fc on CM5, IGF-1R as analyte
T1 construct: range 1-932; Bought protein; also called 재조합 인슐린 유사 성장인자-1 수용체; 391-GR-050

B1: MKJP2-IL2 융합 단일클론항체 (항 IGF-1R_IL2) (other)
heavy: EVQLLESGGGLAQPGGSLRLSCAASGFTFSGYAMSWVRQAPGKGLEWVSAISSDGGSTYYADSVKGRFTISRDNSKNTLYLQMNSLRAEDTAVYYCARDPWFSRWTAFDYWGQGTLVTVSS[human IgG1 constant region not spelt out]GGGGSGGGGSGGGGS[about 150 residues not spelt out]
light: QSVLTQPPSASGTPGQRVTISCSGSSSNIGNNAVNWYQQLPGTAPKLLIYSNSKRPSGVPDRFSGSKSGTSASLAISGLRSEDEADYYCGTWDYSLSGYVFGGGTKLTVLGQPKAAPSVTLFPPSSEELQANKATLVCLISDFYPGAVTVAWKADSSPVKAGVETTTPSKQSNNKYAASSYLSLTPEQWKSHRSYSCQVTHEGSTVEKTVAPAECS
notes: also called MKJP-IL2
Q: B1 was tested. Which EC50 [1] did it give?
A: Its EC50 is 0.123 nM.

Q: And the Kd [2]?
A: Its Kd is 0.352 nM.

Q: What about the koff [2] of the same binder?
A: Its koff is 2.91e-05 s⁻¹.

Q: And the kon [2]?
A: Its kon is 82800 M⁻¹ s⁻¹.
